According to paper PMC4336329 (PLoS ONE, 2015):
About 14,000 (4.5%) of roughly 310,000 compounds showed an effect of 50% or more. Effects have a minus sign here. Some of the results follow.

Biological target: human ether-à-go-go-related gene (hERG) potassium channel (human, UniProt Q12809)
Assay: primary screen, population patch clamp on CHO cells stably expressing hERG
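Also: peak tail current of the secondary pulse compared with the same well before compound.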

Chain of human ether-à-go-go-related gene (hERG) potassium channel (Q12809 whole entry, looked up): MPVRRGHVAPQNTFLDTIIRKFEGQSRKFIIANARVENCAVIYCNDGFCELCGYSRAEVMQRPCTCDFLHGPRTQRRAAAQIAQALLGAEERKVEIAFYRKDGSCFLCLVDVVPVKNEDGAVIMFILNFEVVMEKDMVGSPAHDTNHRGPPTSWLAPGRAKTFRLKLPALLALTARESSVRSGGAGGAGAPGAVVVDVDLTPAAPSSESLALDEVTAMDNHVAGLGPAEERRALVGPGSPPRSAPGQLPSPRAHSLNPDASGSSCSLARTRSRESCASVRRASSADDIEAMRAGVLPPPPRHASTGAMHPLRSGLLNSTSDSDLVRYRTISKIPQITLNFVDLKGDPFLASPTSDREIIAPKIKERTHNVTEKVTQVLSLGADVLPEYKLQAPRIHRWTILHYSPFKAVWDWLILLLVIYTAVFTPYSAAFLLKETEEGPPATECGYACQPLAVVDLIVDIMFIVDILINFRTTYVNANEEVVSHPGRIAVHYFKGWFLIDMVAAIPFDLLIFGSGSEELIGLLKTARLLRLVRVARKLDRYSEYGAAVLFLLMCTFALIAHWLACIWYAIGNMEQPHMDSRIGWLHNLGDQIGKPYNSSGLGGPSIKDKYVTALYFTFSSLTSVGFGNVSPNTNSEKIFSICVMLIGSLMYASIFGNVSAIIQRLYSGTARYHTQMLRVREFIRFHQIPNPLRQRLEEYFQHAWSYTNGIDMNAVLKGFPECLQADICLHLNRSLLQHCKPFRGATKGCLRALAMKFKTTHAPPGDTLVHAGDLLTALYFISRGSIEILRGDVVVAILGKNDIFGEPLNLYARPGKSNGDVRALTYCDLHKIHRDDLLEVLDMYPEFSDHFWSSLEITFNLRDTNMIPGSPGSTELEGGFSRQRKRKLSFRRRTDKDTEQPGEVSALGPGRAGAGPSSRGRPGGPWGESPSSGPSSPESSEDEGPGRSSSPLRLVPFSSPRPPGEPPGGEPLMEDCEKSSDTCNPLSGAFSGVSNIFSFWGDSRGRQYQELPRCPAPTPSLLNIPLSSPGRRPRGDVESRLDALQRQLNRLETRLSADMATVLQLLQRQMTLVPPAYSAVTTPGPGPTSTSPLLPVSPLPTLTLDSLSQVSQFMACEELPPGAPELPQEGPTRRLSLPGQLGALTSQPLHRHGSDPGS

Row | Compound | hERG current change (%, negative = inhibition) at 10uM
1 | Oc1ccc(C[C@@H]2CNCCN2CCCCC2CCCCC2)cc1 | -18%
2 | O=C(CN1C(=O)S/C(=C\c2ccc(Cl)cc2)C1=O)NNC(=O)c1ccccc1O | -3.16%
3 | CC1(C)CC(=O)C=C(Nc2ccc(F)cc2)C1 | -2.75%
4 | Cc1ccc(NC(=O)C2(S(=O)(=O)c3ccc(Cl)cc3)CC2)cc1 | -22%
5 | COC(=O)Cc1cc(=O)n2[nH]c(C)cc2n1 | 9.84%
6 | CCc1nnc(NC(=O)Cn2c(=O)oc3ccccc32)s1 | 3%
7 | C=CCn1c(SC2CCOC2=O)nc2sc(C)c(C)c2c1=O (stereo not shown) | -11.2%
8 | C=CCNC(=S)N/N=C/c1ccc(-c2ccc(OC)cc2)o1 | 37%
9 | COc1ccccc1NC(=O)CN1CCC(c2nc3ccccc3[nH]2)CC1 | -43.6%
10 | COc1ccc(/C=C2\N=C(SC)NC2=O)cc1 | 14%
11 | Cn1cc(C(=O)N2CCc3ccccc3C2)c(=O)c2cc(S(=O)(=O)N3CCOCC3)ccc21 | 8%
12 | COC(=O)[C@@H]1Cc2c([nH]c3ccccc23)C(C)(C)N1C(=O)CCl | 3.24%
13 | C=C(C)CNC(=S)N1CCN(C(c2ccccc2)c2ccccc2)CC1 | 4.87%
14 | c1coc(-c2ccnc(-c3ccncc3)n2)c1 | 8.51%
15 | COc1ccc(NC(=O)C(c2ccccc2)N(C)C(=O)c2cnccn2)cc1 (stereo not shown) | 1.47%
16 | COc1cccc(CN(C)Cc2nc(C3CC3)no2)c1 | 28.6%
17 | Cc1c(S(=O)(=O)NCc2ccccc2)c(=O)n(C)c(=O)n1C | 18.8%
18 | NC(=O)C1CCN(C(=O)/C(=C/c2ccccc2)NC(=O)c2ccccc2)CC1 | 15.1%
19 | COc1ccc(/C=C2\CCCCC2=O)cc1 | -6.19%
20 | COC(=O)C1CCN(c2cc(=O)n(-c3ccccc3Cl)c(=O)[nH]2)CC1 | 3.53%

Row | Compound | hERG current change (%, negative = inhibition) at 10uM
21 | O=c1[nH]c2ccccc2c(O)c1SCCO | -39.9%
22 | CCCCC(=O)Nc1ccc(C(=O)N2CCN(c3ccccc3OC)CC2)cc1 | -3.8%
23 | Cc1cccc(C)c1NC(=O)C1CSC2(C)CCC(=O)N12 (stereo not shown) | 15.1%
24 | CCCCCCCCC/C(=N\O)c1ccccn1 | 11.6%
25 | CCNc1nc(NC(C)C)nc(OCC)n1 | -13.3%
26 | O=C(NC(=C(Cl)Cl)S(=O)(=O)c1ccc(Cl)cc1)c1ccccc1 | 3.23%
27 | CCOC1=NC(C(=O)O)c2ccccc2/C(=C(/C)Cl)N1 (stereo not shown) | 6.78%
28 | CC1(CCc2ccc3c(c2)OCO3)NC(=O)c2ccccc2N1 (stereo not shown) | -7.78%
29 | C=CCSC(CC)(CC)C(N)=O | 3.1%
30 | CCc1cc2c(SCC#N)ncnc2s1 | -6.66%
31 | Cl.O=C(CN1CCN(Cc2ccccc2)CC1)Nc1ccc2c(c1)CCC2 | -47.6%
32 | Cn1c(-c2ccc(Br)cc2)cnc1NCc1ccc(C#N)cc1.O=C(O)C(=O)O | -76.6%
33 | Cc1ccnc(NC(=O)CCCOc2ccc(Cl)cc2C)c1 | 21.3%
34 | Cc1cc(NC(=O)c2cccc(C(=O)Nc3cc(C)on3)n2)no1 | 4.26%
35 | O=C(Nc1ccc2ccccc2c1)c1cccc([N+](=O)[O-])c1 | 13.8%
36 | CCC(=O)NS(=O)(=O)c1ccc(N=NN2CCCCC2)cc1 | 17.1%
37 | Cc1cc(-c2ccccc2C(=O)O)on1 | 17.6%
38 | O=C(Cn1c(C(F)(F)F)nc2ccccc21)c1ccc(F)cc1 | 13.9%
39 | O=C(O)CSc1nnc(COc2cccc3ccccc23)n1Cc1ccccc1 | 21.3%
40 | CC(=O)c1ccc(N2CCN(C(=O)C(=O)c3cn(CC(=O)N4CCCCCC4)c4ccccc34)CC2)cc1 | 3.18%

Row | Compound | hERG current change (%, negative = inhibition) at 10uM
41 | CC(C)COC(=O)Nc1nnc(SCc2ccccc2F)s1 | 3.47%
42 | COc1ccc(S(=O)(=O)Nc2ccc(S(=O)(=O)N3CCCC3)cc2)cc1 | -27.9%
43 | COc1ccc(NC(=O)/C(C#N)=C\c2ccc(-c3cc(C(=O)O)ccc3C)o2)cc1 | 23.7%
44 | Br.c1ccc(NC2=NCCCS2)cc1 | 4.95%
45 | O=C(Nc1ccc(Cl)cc1)[C@@H]1[C@@H]2C(=O)N(c3ccc(Cl)cc3Cl)C(=O)[C@@H]2[C@H]2C=CC=NN21 | -22.5%
46 | O=C(O)c1cccc(S(=O)(=O)N(Cc2ccccc2)c2cccc(C(F)(F)F)c2)c1 | 26.8%
47 | CC(=O)Nc1sc(N/N=C\c2ccc(O)cc2)nc1-c1cccs1 | 9.3%
48 | Cc1ccccc1NC(=O)/C=C/c1cccc(C(F)(F)F)c1 | -2.88%
49 | O=C(Nc1cccc2ccccc12)N1CCN(c2ccc(F)cc2)CC1 | 16.1%
50 | COc1ccc(C(=O)CN2C(=O)NC3(CCCCCC3)C2=O)cc1 | -6.35%
51 | Brc1ccc(-c2nnc3c4ccccc4nc(N4CCOCC4)n23)cc1 | -8.42%
52 | Cc1ccc(C)c(NC(=S)NC(NC(=O)Cc2ccccc2)C(Cl)(Cl)Cl)c1 (stereo not shown) | 15.7%
53 | Cc1ccc(-n2nnnc2SCC(=O)c2cc(C)n(-c3cc(C)on3)c2C)c(C)c1 | -9.42%
54 | COc1ccc(CCNc2ncnc3c2[nH]c2cc(OC)c(OC)cc23)cc1OC | -6.41%
55 | CCc1ccc(OCC(=O)NC(NC(=S)Nc2ccccc2OC)C(Cl)(Cl)Cl)cc1 (stereo not shown) | 3.23%
56 | CC(C)c1ccc(C2c3[nH]c4ccccc4c3C[C@H]3C(=O)N(c4ccccc4C(=O)N4CCC[C@H]4C(=O)O)C(=O)N23)cc1 (stereo partly shown) | 5.97%
57 | COc1ccc(S(=O)(=O)Nc2c(O)ccc3ccccc23)cc1OC | -10.2%
58 | Cn1nccc1C(=O)NC(=S)Nc1sc2c(c1C#N)CCCCC2 | 17.6%
